From the supplement of paper PMC4967469

Tests used:
Assay in all cases: Viability of human cancer cell lines after 72 h of drug (GDSC screen)
STF-62247 = compound: Cc1cccc(Nc2nc(-c3ccncc3)cs2)c1 [STF-62247]; settings: top dose 10.24 µM; top dose inferred
Protocol: (§1)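 Human cancer cell lines in 384-well plates, medium with 10% serum, drug for 72 h over a 256-fold dose range (nine 2-fold or five 4-fold steps up to the top dose). Adherent lines were fixed and stained with the nucleic acid dye Syto60, suspension lines read with resazurin; signal relative to control wells, capped at 0 and 100%. One two-parameter sigmoid per drug and line, fitted in a mixed model over all curves with the slope shared within a line.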

CP724714 = compound: COCC(=O)NC/C=C/c1ccc2ncnc(Nc3ccc(Oc4ccc(C)nc4)c(C)c3)c2c1 [CP724714]; settings: top dose 10.24 µM; top dose inferred
Protocol: as §1

CX-5461 = compound: Cc1cnc(CNC(=O)c2c(=O)c3ccc(N4CCCN(C)CC4)nc3n3c2sc2ccccc23)cn1 [CX-5461]; settings: top dose 10.24 µM; top dose inferred
Protocol: as §1

Obatoclax mesylate = compound: COC1=CC(c2cc3ccccc3[nH]2)=N/C1=C\c1[nH]c(C)cc1C [Obatoclax mesylate]; settings: top dose 16 µM
Protocol: as §1

Cell Line	AUC (STF-62247)	IC50 (STF-62247)	AUC (CP724714)	IC50 (CP724714)	AUC (CX-5461)	IC50 (CX-5461)	AUC (Obatoclax mesylate)	IC50 (Obatoclax mesylate)
H2591 (mesothelioma, adherent)	0.929	> 10.2 µM	0.971	> 10.2 µM	0.951	> 10.2 µM	0.538	1.31 µM
H2595 (mesothelioma, adherent)	0.962	> 10.2 µM	0.978	> 10.2 µM	0.911	> 10.2 µM	0.489	0.925 µM
H2722 (mesothelioma, adherent)	0.982	> 10.2 µM	0.967	> 10.2 µM	0.983	> 10.2 µM	0.463	0.778 µM
H2731 (mesothelioma, adherent)	0.822	7.12 µM	0.976	> 10.2 µM	0.875	> 10.2 µM	0.374	0.426 µM
H2795 (mesothelioma, adherent)	0.803	4.99 µM	0.956	> 10.2 µM	0.982	> 10.2 µM	0.69	3.37 µM
H2803 (mesothelioma, adherent)	0.984	> 10.2 µM	0.976	> 10.2 µM	0.96	> 10.2 µM	0.533	1.25 µM
H2804 (mesothelioma, adherent)	0.983	> 10.2 µM	0.963	> 10.2 µM	0.982	> 10.2 µM	0.474	0.846 µM
H2818 (mesothelioma, adherent)	0.98	> 10.2 µM	0.974	> 10.2 µM	0.989	> 10.2 µM	0.786	7.13 µM
H2869 (mesothelioma, adherent)	0.982	> 10.2 µM	0.953	> 10.2 µM	0.969	> 10.2 µM	0.414	0.548 µM
H3118 (head and neck, adherent)	0.983	> 10.2 µM	0.912	> 10.2 µM	0.802	5.6 µM	0.078	< 0.0625 µM
H3255 (lung adenocarcinoma, adherent)	0.973	> 10.2 µM	0.876	> 10.2 µM	0.979	> 10.2 µM	0.298	0.239 µM
HARA (lung squamous cell carcinoma, adherent)	0.956	> 10.2 µM	0.926	> 10.2 µM	0.794	5.6 µM	0.413	0.553 µM
HCC38 (breast, adherent)	0.986	> 10.2 µM	0.977	> 10.2 µM	0.853	9.04 µM	0.623	2.25 µM
HCC70 (breast, adherent)	0.967	> 10.2 µM	0.987	> 10.2 µM	0.95	> 10.2 µM	0.511	1.07 µM
HCC1143 (breast, adherent)	0.971	> 10.2 µM	0.944	> 10.2 µM	0.979	> 10.2 µM	0.303	0.221 µM
HCC1187 (breast, suspension)	0.932	> 10.2 µM	0.968	> 10.2 µM	0.981	> 10.2 µM	0.623	2.14 µM

Cell Line	AUC (STF-62247)	IC50 (STF-62247)	AUC (CP724714)	IC50 (CP724714)	AUC (CX-5461)	IC50 (CX-5461)	AUC (Obatoclax mesylate)	IC50 (Obatoclax mesylate)
HCC1395 (breast, adherent)	0.981	> 10.2 µM	0.981	> 10.2 µM	0.977	> 10.2 µM	0.621	2.31 µM
HCC1419 (breast, adherent)	0.949	> 10.2 µM	0.73	3.89 µM	0.981	> 10.2 µM	0.665	3.5 µM
HCC1428 (breast, adherent)	0.987	> 10.2 µM	0.979	> 10.2 µM	0.987	> 10.2 µM	0.343	0.35 µM
HCC1500 (breast, adherent)	0.988	> 10.2 µM	0.972	> 10.2 µM	0.981	> 10.2 µM	0.406	0.546 µM
HCC1569 (breast, adherent)	0.959	> 10.2 µM	0.945	> 10.2 µM	0.968	> 10.2 µM	0.163	< 0.0625 µM
HCC1806 (breast, adherent)	0.923	> 10.2 µM	0.986	> 10.2 µM	0.864	7.76 µM	0.176	0.117 µM
HCC1937 (breast, adherent)	0.982	> 10.2 µM	0.978	> 10.2 µM	0.956	> 10.2 µM	0.431	0.627 µM
HCC1954 (breast, adherent)	0.984	> 10.2 µM	0.853	10.2 µM	0.981	> 10.2 µM	0.619	2.25 µM
HCC-15 (lung squamous cell carcinoma, adherent)	0.979	> 10.2 µM	0.975	> 10.2 µM	0.978	> 10.2 µM	0.447	0.688 µM
HCC-44 (lung adenocarcinoma, adherent)	0.938	> 10.2 µM	0.981	> 10.2 µM	0.496	0.623 µM	0.125	0.0658 µM
HCC-56 (large intestine, adherent)	0.987	> 10.2 µM	0.878	> 10.2 µM	0.962	> 10.2 µM	0.427	0.628 µM
HCC-78 (lung adenocarcinoma, adherent)	0.983	> 10.2 µM	0.968	> 10.2 µM	0.962	> 10.2 µM	0.533	1.25 µM
HCC-827 (lung adenocarcinoma, adherent)	0.984	> 10.2 µM	0.916	> 10.2 µM	0.985	> 10.2 µM	0.24	0.155 µM
HCT-15 (large intestine, adherent)	0.984	> 10.2 µM	0.972	> 10.2 µM	0.71	2.62 µM	0.214	0.136 µM
HCT-116 (large intestine, adherent)	0.967	> 10.2 µM	0.977	> 10.2 µM	0.774	3.82 µM	0.174	0.11 µM
HDQ-P1 (breast, adherent)	0.964	> 10.2 µM	0.981	> 10.2 µM	0.61	1.36 µM	0.554	1.44 µM

IC50 is the fitted dose that halves viability relative to control wells, and lower means more sensitive; a fit beyond the top or the lowest dose is shown as a bound at that dose. AUC, from the same fit, is the share of area under the viability curve across the 256-fold dose range; it is 1 without any effect and falls as sensitivity rises. For some of these results: Where the top dose is marked as inferred, it was derived from the fitted curves, not read from the paper.
